These results are taken from ChEMBL document CHEMBL1157539, “Thousands of chemical starting points for antimalarial lead identification” (Nature, 2010).

Structures are written as SMILES. The full ranking holds about 13,000 compounds; the median of “IFI” is about 4, and the highest 2% start at about 17. The list shows a part of the results.

The assay in a line: GSK_TCMDC: Inhibition Frequency Index (IFI). The number of non-kinase HTS assays where a compound showed > 50 % inhibition, expressed as a percentage of the number of such assays in which the compound was tested (-0 is zero). In kind it is functional.
In the case of `O=c1cc(NCCCNCc2ccccc2-c2ccccc2)[nH]c2ccccc12`, the IFI was 7.64%.

`COCCNCc1ccc(-c2ccccc2CNC2CCN(Cc3ccccc3)CC2)cc1` showed an IFI of 3.68%.

On to `CCc1cc2c(Sc3nnc(N)s3)ncnc2s1`, for which the IFI was 4.83%.

With `O=C(NC1CCN(Cc2ccccc2)CC1)c1cc(C(=O)NC2CCN(Cc3ccccc3)CC2)cc(C(=O)NC2CCN(Cc3ccccc3)CC2)c1`, the IFI was determined as 1.45%.

`Cc1ccccc1OCCCON1C(=N)N=C(N)NC1(C)C` had an IFI of 5.59%.

Compound `CN1CCC(N2CCN(CCOc3cc(NC(=O)/C=C/c4ccccc4Cl)ccc3Br)CC2)CC1` gave an IFI of 7.3%.

Consider `CN1CCN(c2cccc(NC(=O)c3ccc(-c4ccc(C#N)cc4)cc3)c2)CC1`, for which the IFI turned out to be 2.68%.

Regarding `CCOc1ccc(C2CCN(CCCCNC(=O)c3ccc(NC(=O)c4ccc(Cl)cc4)cc3)CC2)c(Cl)c1`, the IFI came to 7.08%.

The compound `COc1ccc(CCNCCCCCCNCCc2ccccc2Cl)cc1OC` returned an IFI of 2.88%.

As for `O=C(OCc1ccccn1)c1nc2ccccc2[nH]1`, the IFI was found to be 1.42%.

Compound `CN1CCCc2ccc(NC(=O)c3ccc(-c4cc(C(F)(F)F)nn4C)s3)cc2C1` had an IFI of 3.45%.

In turn, `CN1CCN(c2ccc3[nH]c(-c4ccc5[nH]c(-c6ccc([N+](=O)[O-])c(N)c6)nc5c4)nc3c2)CC1` showed an IFI of 5.97%.

`CCCC(C)n1ccc2c3c(N)nc(N)nc3ccc21` (stereo not given) gave an IFI of 4.9%.

For `CN1CCc2cc(CN3CC4(C)CC3CC(C)(C)C4)c(O)cc2C(c2ccccc2)C1` (stereo not given), the IFI was found to be 3.03%.

On to `COc1ccc(-c2cc(C(=O)N[C@@H](CC3CCCCC3)C(=O)NC3CCCc4ccccc43)ccc2O)cc1` (stereo not given in full), for which the IFI is 0.75%.

As to `CC(C)(C)c1ccc(N2C(N)=NC(N)=NC2(C)C)cc1`, the IFI is 2.21%.

As to `CC(=O)Nc1cccc(C(=O)Nc2ccc(-c3cccc(-c4nc5cc(F)ccc5[nH]4)c3)cc2)c1`, the IFI stood at 3.51%.

With `CC1(C)NC(N)=NC(=N)N1OCCCNC(=O)c1ccc([N+](=O)[O-])cc1`, the IFI worked out at 2.24%.

With `CN1CCN(c2cccc(-c3nnc(-c4ccc(OCC(=O)NCc5cccc(C(F)(F)F)c5)c([N+](=O)[O-])c4)o3)c2)CC1`, the IFI was determined as 2.17%.

`COc1ccc2nccc([C@@H](O)CN3CCC(NCc4cc5sccc5nc4C(F)(F)F)CC3)c2c1` yielded an IFI of 2.17%.

`Cc1cccc(C)c1C1CCN(C2CCC(NC(=O)/C=C/c3ccccc3)CC2)CC1` (stereo not given) gave an IFI of 6.06%.

Take `COc1ccccc1CCNc1nc(C)cc(N[C@@H](CC(C)C)C(=O)Nc2ccccc2)n1`: the IFI was found to be 15.8%.

On to `CCN(CCCN1CCCCC1)c1cc(C)nc(Nc2ccc(C)cc2C(F)(F)F)n1`, for which the IFI is 5.06%.

`CN(C)Cc1cc(Nc2ccnc3cc(Cl)ccc23)ccc1O` registered an IFI of 1.4%.

Compound `CN1CCN(CC(=O)Nc2ccc(-c3cccc(-c4nc5cc(F)ccc5[nH]4)c3)cc2)CC1` yielded an IFI of 3.6%.

Regarding `COc1ccc(C(=O)CCC(=O)N(Cc2ccc(-c3ccc(CNCCc4ccccc4)cn3)cc2)C(C)CN(C)C)cc1F` (stereo not given), the IFI is 6.9%.

Turning to `Cc1cc(Nc2ccc(O)cc2)nc2cc(O)ccc12`, the IFI turned out to be 3.85%.

Compound `CN1CCN(CCc2ccc(N/C=C3\C(=O)Nc4ccc5ncccc5c43)cc2)CC1` gave an IFI of 7.86%.

The compound `Cc1cccc2nc(-c3ccc(-c4cccc(NC(=O)c5ccncc5)c4)cc3)[nH]c12` returned an IFI of 5.61%.

Consider `CC(Cc1ccc(NC(=O)c2ccc(CC(C)NCc3ccc(Cl)c(Cl)c3)cc2)cc1)NCCc1cccc(Cl)c1` (stereo not given), for which the IFI came out at 3.57%.

As for `Cc1c(F)cc(C(=O)NC2CC2)cc1-c1ccc2c(cnn2S(=O)(=O)c2ccc(F)c(F)c2)c1`, the IFI is 5.19%.

In the case of `COc1cc(-n2cnc3cc(-c4ccc(Cl)cc4)sc3c2=O)ccc1OCCN1CCC(c2cccc(NC(C)=O)c2)CC1`, the IFI was found to be 10.1%.

`Clc1cccc(C=NNc2ccnc3cc(Cl)ccc23)c1` gave an IFI of 2.22%.

With `CCc1cn2c3c(cc(C(=O)N[C@@H](Cc4cccc(Cl)c4)[C@H](O)CNC4CC4)cc13)N(C)S(=O)(=O)CC2`, the IFI is 3.68%.

The compound `CN1CCN(c2ccnc3ccc(NC(=O)Nc4ccc(Cl)cc4)cc23)CC1` came in with an IFI of 0.73%.

`c1cncc(CCNCc2cccc(-c3ccc(-c4nc5ccccc5[nH]4)s3)c2)c1` had an IFI of 3.53%.

On to `O=C(NC1CC1)c1ccc(Nc2nccc(-c3c(-c4cccc(NC(=O)c5c(F)cccc5F)c4)nn4ccccc34)n2)cc1`, for which the IFI worked out at 6.43%.

With `CCCCCCCCc1nc(C)c(Br)c(O)c1Br`, the IFI amounted to 5.76%.

As to `O=C(NCCNc1ccnc(Nc2ccc(F)cc2)n1)c1cc2ccccc2s1`, the IFI came out at 4.62%.

For `CN1CCC(Oc2cc(NC(=O)Nc3ccc(-c4ccncc4)c(C(F)(F)F)c3)ccc2Cl)CC1`, the IFI amounted to 8.03%.

Consider `Cc1cc(CN2CC[C@H](NC(=O)c3ccc(Cl)c(Cl)c3)C2)ccc1OCCN1CCNCC1`, for which the IFI was found to be 5.88%.

With `CCN(CCCN1CCCCC1)c1cc(C)nc(Nc2ccc(C)c(F)c2)n1`, the IFI was 3.85%.

In the case of `CC(C)Cc1nc(N)nc(N)c1-c1ccc(Cl)cc1`, the IFI was 0.76%.

The compound `Cc1nc2nc(N)nc(N)c2c(C)c1Cc1ccc(Cl)cc1` came in with an IFI of 2.22%.

`COc1ccc2nccc([C@@H](O)CN3CCC(NCc4nc5c(cc4Cl)SCC(=O)N5)C(F)C3)c2c1` (stereo not given in full) gave an IFI of 2.38%.

In the case of `Cc1cc(N)c2cc(NC(=O)c3cccc(C(=O)Nc4ccc5nc(C)cc(N)c5c4)c3)ccc2n1`, the IFI is 8.84%.

`COc1cc(Cc2cnc(N)nc2N)cc(OCCCCCCN)c1OC` gave an IFI of 0%.

Consider `O=C(Nc1cccc(-c2ccc(CN3CCC(O)CC3)cc2)c1)c1ccc(Cl)cc1`, for which the IFI was found to be 3.85%.

Turning to `CCN(CC)c1nc(N)c2c(N)nc3c(c2c1C#N)C(=O)CN3Cc1ccccc1`, the IFI came out at 11.8%.

For the compound `COc1ccc(-c2ccnc(-c3cccc(-c4ccccn4)n3)c2)cc1`, the IFI stood at 13.3%.

The compound `CCCCc1cc(N2CCC(NC(C)=O)C2)nc(Nc2ccc(C)cc2)n1` (stereo not given) displayed an IFI of 1.45%.

The compound `Cc1[nH]c(C)c(-c2ccc(-c3ccccc3Cl)nc2)c(=O)c1Br` displayed an IFI of 0%.

For the compound `N#Cc1ccc(N2CCN(Cc3cccc(-c4ccc(-c5nc6cc(C(F)(F)F)ccc6[nH]5)s4)c3)CC2)nc1`, the IFI came to 9.8%.

The compound `CCN1CCN(c2ccc(NC(=O)c3cc4c(C)nn(-c5ccccc5)c4s3)cc2C)CC1` yielded an IFI of 11.3%.

Regarding `CN1CCCN(Cc2ccc(-c3ccc(NC(=O)c4cccc(C#N)c4)cc3)cc2)CC1`, the IFI came out at 7.22%.

`CC(C)NCc1ccc(-c2ccc(NC(=O)c3ccc(Cl)cc3)cc2)cc1` displayed an IFI of 7.14%.

For the compound `COc1ccc2nccc([C@@H](O)CN3CCC(NC(=O)C(c4ccsc4)N4CCN(c5ccccc5)CC4)CC3)c2c1` (stereo not given in full), the IFI worked out at 0.69%.

`COc1cccc(OC)c1-c1ccccc1NC(=O)N1CCCc2cc(C)ccc21` returned an IFI of 3.7%.

In turn, `CC(=O)Nc1ccc(C(=O)Nc2cccc(-c3cccc(-c4nc5cccc(C)c5[nH]4)c3)c2)cn1` registered an IFI of 1.87%.

With `COc1ccc(NC(=O)/C=C/c2ccccc2Cl)cc1OCCN1CCC(N2CCCCC2)CC1`, the IFI came out at 3.1%.

Compound `CC(C)Oc1ccc(C=CC(=O)Nc2noc3ccccc23)cc1` had an IFI of 1.54%.

On to `CC(=O)N1Cc2ccccc2C1=O`, for which the IFI amounted to 0.75%.

`Cc1cc2c(cc1C(F)(F)F)N(C(=O)Nc1cc(C(=O)NCCN(C)C)cc(C(F)(F)F)c1)CC2` gave an IFI of 3.57%.

`FC(F)(F)c1ccc2[nH]c(-c3ccc(-c4ccc(CNCc5cnn(-c6ccccc6)n5)cc4)s3)nc2c1` showed an IFI of 11.3%.

Turning to `O=C(NC1CCC(N2CCC(c3ccccc3C(F)(F)F)CC2)CC1)c1cc2ccccc2[nH]1` (stereo not given), the IFI was determined as 10.4%.

For `Cc1ccc(NC(=O)Nc2ccc(Br)cc2)cc1OCCN(C)C`, the IFI amounted to 2.1%.

Regarding `O=C(Nc1ccccc1Cc1ccccc1)c1ccccc1C(F)(F)F`, the IFI was determined as 0.78%.

For `O=C(NCCc1ccccc1)[C@H](Cc1ccccc1)Nc1ccnc(NCC2CCCCC2)n1`, the IFI was 20.4%.

`Cc1c(Cl)cccc1S(=O)(=O)N1CCCCC(c2ccc(C(F)(F)F)cc2)=N1` had an IFI of 2.19%.

As for `Cc1n[nH]c2ccc(-c3cc(OC[C@@H](N)Cc4ccccc4)cnc3-c3ccc(OCc4cccc(F)c4)cc3)cc12`, the IFI came out at 12.5%.

Turning to `Cc1cc(C(=O)OCC(=O)Nc2c(C)n(C)n(-c3ccccc3)c2=O)c(C)n1-c1ccc(F)cc1`, the IFI is 0%.

The compound `O=C(Nc1ccc(C(F)(F)F)cc1)NC1CCN(c2ccnc3ccccc23)C1` (stereo not given) showed an IFI of 6.06%.

The compound `c1ccc(CN2CCC(NCc3ccc(-c4ccc(CNCc5cccnc5)cn4)cc3)CC2)cc1` gave an IFI of 0.68%.

For `C[C@H](Cc1ccc(OCCCCCOc2ccc(C[C@@H](C)NC[C@H](O)c3cccc(Cl)c3)cc2)cc1)NC[C@H](O)c1cccc(Cl)c1`, the IFI amounted to 20.9%.

For the compound `COc1cccc2cc(C(=O)N[C@@H](CC(C)C)C(=O)N[C@H](/C=N/N3C(=O)CN(Cc4ccccc4)C3=O)CCc3ccccc3)oc12`, the IFI turned out to be 5.5%.

For `CN(C)CCNCc1ccc(-c2ccc3c(Nc4ccc(Cl)cc4F)ccnc3c2)o1`, the IFI stood at 7.04%.

With `CS(=O)(=O)CCCNCc1ccc(-c2cc3c(Nc4ccc(OCc5ccccc5)cc4)ncnc3cn2)o1`, the IFI amounted to 3.65%.

`Cc1cc(Cc2ccc(S(=O)(=O)c3cc4c(cc3O)CCN(C)CC4)cc2)ccc1Cl` showed an IFI of 12.7%.

As to `N#Cc1ccc2c(c1)CCN(CCC1CCC(NC(=O)/C=C/c3cc(Br)cs3)CC1)CC2` (stereo not given), the IFI was 2.14%.

In turn, `CCNc1cc(C(=O)N[C@@H](Cc2ccccc2)[C@H](O)CNC(CC)c2cccc(Cl)c2)cc(N2CCCCS2(=O)=O)c1` (stereo not given in full) registered an IFI of 4.96%.

`COc1cccc2c(NN=Cc3cccc(Cl)c3)cc(C)nc12` gave an IFI of 2.88%.

With `Clc1ccccc1C=NN=c1cc[nH]c2ccccc12`, the IFI turned out to be 2.96%.

For `CC1SC(=S)NC1C(=O)O` (stereo not given), the IFI amounted to 0.76%.

Consider `Nc1ncc(-c2cn[nH]c2)cc1-c1nc2ccc(Cl)cc2[nH]1`, for which the IFI stood at 3.03%.

The compound `CCOc1cc(OCC)c2ccccc2c1CNCCCCCCNCc1c(OCC)cc(OCC)c2ccccc12` displayed an IFI of 16%.

`Cc1cccc2nc(-c3ccc(-c4ccc(NC(=O)NCc5cccc(F)c5)cc4)cc3)[nH]c12` came in with an IFI of 4%.

`CC(C)CNCc1ccc(-c2cccc(-c3nc4ccccc4[nH]3)c2)cc1` gave an IFI of 10.3%.

For `CC(C)CCNC(=N)Nc1ccc(OCCCOc2ccc(NC(=N)NCCC(C)C)cc2)cc1`, the IFI was 5.04%.

On to `CCc1sc(N2CCC(C)CC2)nc1C(=O)Nc1ccc(F)cc1C(F)(F)F`, for which the IFI was -0%.

Take `CCN(CC)CCN(Cc1ccc(-c2ccc(C(F)(F)F)cc2)cc1)C(=O)Cn1c(SCc2ccc(F)cc2)nc(=O)c2ccccc21`: the IFI was found to be 7.14%.
